Assay results from paper PMC4336329 (PLoS ONE, 2015).
The campaign covered roughly 310,000 compounds. About 2,200 (0.71%) showed an effect of 50% or more. The effect is printed as a negative number. The list shows a part of the results.

Each compound was assayed against human ether-à-go-go-related gene (hERG) potassium channel (human, UniProt Q12809) (assay: primary screen, population patch clamp on CHO cells stably expressing hERG).
Chain of human ether-à-go-go-related gene (hERG) potassium channel (Q12809 whole entry, looked up): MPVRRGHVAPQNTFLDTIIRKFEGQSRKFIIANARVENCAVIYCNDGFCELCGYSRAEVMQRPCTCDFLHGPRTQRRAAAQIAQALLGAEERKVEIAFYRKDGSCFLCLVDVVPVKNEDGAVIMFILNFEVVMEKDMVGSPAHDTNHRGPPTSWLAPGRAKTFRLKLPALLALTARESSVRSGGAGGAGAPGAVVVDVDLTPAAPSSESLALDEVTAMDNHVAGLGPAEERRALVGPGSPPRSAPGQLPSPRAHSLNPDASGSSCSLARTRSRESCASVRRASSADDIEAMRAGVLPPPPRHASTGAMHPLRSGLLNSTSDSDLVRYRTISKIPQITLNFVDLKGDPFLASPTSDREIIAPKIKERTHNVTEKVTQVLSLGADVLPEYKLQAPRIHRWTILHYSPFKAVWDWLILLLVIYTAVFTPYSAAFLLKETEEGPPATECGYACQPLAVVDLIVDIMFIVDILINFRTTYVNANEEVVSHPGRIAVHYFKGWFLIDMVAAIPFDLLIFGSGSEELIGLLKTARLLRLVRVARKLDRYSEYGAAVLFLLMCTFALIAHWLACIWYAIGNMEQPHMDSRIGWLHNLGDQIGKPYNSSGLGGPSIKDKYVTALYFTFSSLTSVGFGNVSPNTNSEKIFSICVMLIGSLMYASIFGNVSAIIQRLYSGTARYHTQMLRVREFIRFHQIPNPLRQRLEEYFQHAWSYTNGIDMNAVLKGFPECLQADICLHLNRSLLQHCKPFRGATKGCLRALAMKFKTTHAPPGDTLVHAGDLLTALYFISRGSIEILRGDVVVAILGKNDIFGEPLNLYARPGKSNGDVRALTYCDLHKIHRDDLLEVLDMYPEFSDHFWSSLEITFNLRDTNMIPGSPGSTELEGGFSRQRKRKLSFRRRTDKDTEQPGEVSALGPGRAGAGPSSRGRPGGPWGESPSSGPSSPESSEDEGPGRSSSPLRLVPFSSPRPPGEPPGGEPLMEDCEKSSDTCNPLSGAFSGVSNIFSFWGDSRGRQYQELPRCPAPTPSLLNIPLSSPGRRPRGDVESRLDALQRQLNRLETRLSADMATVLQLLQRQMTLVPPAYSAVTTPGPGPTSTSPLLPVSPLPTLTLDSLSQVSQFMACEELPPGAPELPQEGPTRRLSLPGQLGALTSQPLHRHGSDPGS
In the case of `CN(C)C1=NC[C@H](Cc2ccccc2)N1CCCCc1ccccc1`, the “hERG current change (%, negative = inhibition) at 1uM” value is reported as -42.2%. With `Cc1ccc(N2CSC3=C(C#N)C(c4cccs4)CC(=O)N3C2)cc1` (centres unmarked) the “hERG current change (%, negative = inhibition) at 1uM” value was 9.65%. In the case of `COc1cc2c3c(c1)C(C)=CC(C)(C)N3C(=O)C2=O`, the “hERG current change (%, negative = inhibition) at 1uM” value is reported as 8.81%. For `CCOC(=O)C1=C(C)NC2=C(C(=O)CC(C)(C)C2)C1c1ccc2c(c1)CCCN2C` (centres unmarked), the “hERG current change (%, negative = inhibition) at 1uM” value was 2.35%. For `O=C(C1CC1)N1CCN(C(c2ccccc2)c2ccccc2)CC1`, the “hERG current change (%, negative = inhibition) at 1uM” value was 14.9%. For `CCN1C(=O)c2cccc3c(S(=O)(=O)N(C(=O)c4cccnc4)c4ccc(OC)cc4)ccc1c23`, the “hERG current change (%, negative = inhibition) at 1uM” value was 9.14%. For `Cc1nc(N2CCN(c3ccccc3)CC2)[nH]c(=O)c1CCC(C)C`, the “hERG current change (%, negative = inhibition) at 1uM” value was 14.2%. `CCCNC(=S)N1CCC(C(=O)c2ccc3c(c2)OCCO3)CC1` was tested, and the “hERG current change (%, negative = inhibition) at 1uM” value was 6.67%. For `CCOC(=O)c1sc(NC(=O)CSc2nc(C)cc(C(F)(F)F)n2)c(C#N)c1C`, the “hERG current change (%, negative = inhibition) at 1uM” value was 2.77%. `Cc1ccc(NC(=O)Cn2c(CCC(=O)O)ccc2-c2cccs2)cc1` was tested, and the “hERG current change (%, negative = inhibition) at 1uM” value was -4.07%. For `CCOc1ccccc1NS(=O)(=O)N(C)C`, the “hERG current change (%, negative = inhibition) at 1uM” value was -5.77%. `CC(=O)c1cccc(NC(=O)CSc2ncc(C(=O)Nc3ccccc3)c(=O)n2C)c1` was tested, and the “hERG current change (%, negative = inhibition) at 1uM” value was -6.55%. In the case of `CN(C)c1ccc2c3c(ccc(N(C)C)c13)COC2`, the “hERG current change (%, negative = inhibition) at 1uM” value is reported as -3.29%. `COc1cc(/C=N/NC(=O)CSCc2ccc([N+](=O)[O-])cc2)cc(OC)c1OC` was tested, and the “hERG current change (%, negative = inhibition) at 1uM” value was 1.15%. `C=CCNC(=O)c1ccc2c3n(nc2c1)-c1ccccc1CO3` was tested, and the “hERG current change (%, negative = inhibition) at 1uM” value was -10%. For `CCOC(=O)c1nc2nc(C)cc(=O)n2[nH]1`, the “hERG current change (%, negative = inhibition) at 1uM” value was 7.02%. For `O=C(Nc1nccs1)c1ccc(Cl)nc1`, the “hERG current change (%, negative = inhibition) at 1uM” value was 15.1%. `NC(=O)C1CCN(Cc2nc3cc(C(F)(F)F)ccc3c(=O)[nH]2)CC1` was tested, and the “hERG current change (%, negative = inhibition) at 1uM” value was 10.2%. `O=C1CC(SCc2nc3ccccc3[nH]2)C(=O)N1c1cccc(F)c1` (centres unmarked) was tested, and the “hERG current change (%, negative = inhibition) at 1uM” value was 9.7%. With `COc1ccc(-c2cn(/N=C/c3ccc(Cl)cc3Cl)c(N)n2)cc1` the “hERG current change (%, negative = inhibition) at 1uM” value was 5.2%. In the case of `N#Cc1nc(Cc2ccccc2)oc1N1CCC(C(N)=O)CC1`, the “hERG current change (%, negative = inhibition) at 1uM” value is reported as 1.5%. For `CC1=C(C(=O)Nc2ccccc2F)C(c2ccsc2)C2=C(CC(C)(C)CC2=O)N1` (centres unmarked), the “hERG current change (%, negative = inhibition) at 1uM” value was 1.33%. `N#Cc1cn(CC(=O)NCc2cccnc2)c2ccccc12` was tested, and the “hERG current change (%, negative = inhibition) at 1uM” value was 1.54%. With `N#C/C(=C\c1cccnc1)C(=O)Nc1cccc(Cl)c1` the “hERG current change (%, negative = inhibition) at 1uM” value was 4.85%. With `COc1ccccc1CN(Cc1ccco1)S(=O)(=O)c1ccc(-n2cnnn2)c(OC)c1` the “hERG current change (%, negative = inhibition) at 1uM” value was 15%. In the case of `Cc1ccc2c(C)c(C(=O)N(C)CCC3CCCCO3)oc2c1C` (centres unmarked), the “hERG current change (%, negative = inhibition) at 1uM” value is reported as 6.25%. With `COc1ccc2[nH]c(=O)c(CN(C(=O)c3cccnc3)c3ccc(C)cc3)cc2c1` the “hERG current change (%, negative = inhibition) at 1uM” value was 4.82%. With `Cc1cc(C)nc(N2CCCC(C(=O)Nc3ccc4c(c3)OCO4)C2)n1` (centres unmarked) the “hERG current change (%, negative = inhibition) at 1uM” value was 15.9%. In the case of `O=C(CSc1nnc(-c2ccncc2)o1)NC1CCCCC1`, the “hERG current change (%, negative = inhibition) at 1uM” value is reported as 1.09%. In the case of `COc1ccc2c(c1)CCc1c(C(=O)N3CCCc4ccccc43)noc1-2`, the “hERG current change (%, negative = inhibition) at 1uM” value is reported as 7.61%. `CCOc1ccc(-c2c(C(=O)N/N=C/c3ccc(C)cc3)nnn2-c2nonc2N)cc1` was tested, and the “hERG current change (%, negative = inhibition) at 1uM” value was 5.28%. `C/C(=N\NC(=O)Nc1ccccc1)c1ccccc1` was tested, and the “hERG current change (%, negative = inhibition) at 1uM” value was 7.76%. In the case of `Cc1c([N+](=O)[O-])c([N+](=O)[O-])nn1CC(=O)N1CCOCC1`, the “hERG current change (%, negative = inhibition) at 1uM” value is reported as 17.5%. `CCC1CCC2(CC1)NC(=O)N(CC(=O)Nc1ccc(OC)c(Cl)c1)C2=O` (centres unmarked) was tested, and the “hERG current change (%, negative = inhibition) at 1uM” value was 9.92%. For `CSc1nsc(SCC(=O)Nc2ccc(OC(C)=O)cc2)n1`, the “hERG current change (%, negative = inhibition) at 1uM” value was 9.38%. For `c1ccc2c(CSc3nnc(-c4ccncc4)o3)cccc2c1`, the “hERG current change (%, negative = inhibition) at 1uM” value was 4.85%. In the case of `CCc1ccc(/C=C(\C)C(=O)c2c(C)cc(C)[nH]c2=O)cc1`, the “hERG current change (%, negative = inhibition) at 1uM” value is reported as 7.16%. `N#C/C(=C\Nc1ccc2c(c1)OCCO2)c1nc(-c2ccccc2)cs1` was tested, and the “hERG current change (%, negative = inhibition) at 1uM” value was 15.3%. `CCn1c(SCC(=O)Nc2nc(C)cs2)nnc1-c1cccnc1` was tested, and the “hERG current change (%, negative = inhibition) at 1uM” value was 5.88%. In the case of `CCNC(=O)CN(c1ccccc1OC)S(=O)(=O)c1cccs1`, the “hERG current change (%, negative = inhibition) at 1uM” value is reported as 4.09%. With `CCOc1ccccc1NC1c2ccccc2C(=O)N1Cc1ccco1` (centres unmarked) the “hERG current change (%, negative = inhibition) at 1uM” value was 7.42%. With `CN(C)S(=O)(=O)c1ccc(C(=O)OCC(=O)NCc2ccco2)cc1` the “hERG current change (%, negative = inhibition) at 1uM” value was 13.1%. With `CC1CCN(S(=O)(=O)N2CCCC(C(=O)NCc3ccc(F)cc3)C2)CC1` (centres unmarked) the “hERG current change (%, negative = inhibition) at 1uM” value was 11.9%. `CCc1cc2c(=O)n(-c3ccccc3)c(SCC(=O)O)nc2s1` was tested, and the “hERG current change (%, negative = inhibition) at 1uM” value was 17%. For `CC(=NCCN1CCN(C(C)=C2C(=O)c3ccccc3C2=O)CC1)C1=C(O)CC(C)(C)CC1=O`, the “hERG current change (%, negative = inhibition) at 1uM” value was -18.1%. `CC(=O)Nc1ccc(S(=O)(=O)Nc2nc3ccccc3nc2N2CCCCCC2)cc1` was tested, and the “hERG current change (%, negative = inhibition) at 1uM” value was 10.3%. For `Cc1ccc(S(=O)(=O)N(Cc2n[nH]c(=S)n2-c2ccccc2)c2cccc(Cl)c2)cc1`, the “hERG current change (%, negative = inhibition) at 1uM” value was 14%. In the case of `CC(NCc1ccco1)C(=O)N1CCc2ccccc2C1.Cl` (centres unmarked), the “hERG current change (%, negative = inhibition) at 1uM” value is reported as 14.5%. `C=CCOC(=O)C1=C(C)Nc2nc3ccccc3n2C1c1ccncc1` (centres unmarked) was tested, and the “hERG current change (%, negative = inhibition) at 1uM” value was 9.94%. `O=C(NCc1ccncc1)/C(=N/O)c1ccccc1` was tested, and the “hERG current change (%, negative = inhibition) at 1uM” value was 18.6%. With `COc1ccc(/C=N/NC(=O)c2cccc(OC(F)(F)C(F)F)c2)c(OC)c1OC` the “hERG current change (%, negative = inhibition) at 1uM” value was 7.79%. `Cc1ccc(OCCC(=O)OCC(=O)NCc2ccccc2)cc1` was tested, and the “hERG current change (%, negative = inhibition) at 1uM” value was 5.04%. With `Cc1ccc(C(=O)Cn2c(C(=O)O)cc3ccccc32)cc1` the “hERG current change (%, negative = inhibition) at 1uM” value was 14.1%. For `O=[N+]([O-])c1cc(Cl)c(O)c(-[n+]2c(-c3ccccc3)cc(-c3ccccc3)cc2-c2ccccc2)c1.[O-][Cl+3]([O-])([O-])[O-]`, the “hERG current change (%, negative = inhibition) at 1uM” value was 10.6%. In the case of `CCOC(=O)n1c(=O)n(Cc2ccc(OC)cc2)c2ccccc21`, the “hERG current change (%, negative = inhibition) at 1uM” value is reported as 11.7%. `Cc1cc(OCC(O)CN2CCCC2)ccc1C(C)C.Cl` (centres unmarked) was tested, and the “hERG current change (%, negative = inhibition) at 1uM” value was 6.93%.
